These results are taken from PMC6919601, “Identification of Plasmodium dipeptidyl aminopeptidase allosteric inhibitors by high throughput screening” (PLoS ONE, 2019).

SMILES strings stand for the structures. Several values for one entry are separate records, joined by “and”; a condition that tells them apart may be missing. Identical values can stand only once. The campaign covered roughly 110,000 compounds. About 230 (0.21%) showed an effect of 50% or more. The list shows a part of the results.
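Note: 30 min substrate incubation versus DMSO and 10 µM JCP410 controls.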

The target of this experiment is DPAP1 (Plasmodium falciparum, UniProt Q8IIJ9). The experiment is described as follows: primary screen, percent inhibition; read by cleavage of a fluorogenic dipeptide substrate; higher = more effect of the substance. Further details: species or system P. falciparum D10 trophozoite lysates; single well.
Sequence of DPAP1 (Q8IIJ9 whole entry, looked up): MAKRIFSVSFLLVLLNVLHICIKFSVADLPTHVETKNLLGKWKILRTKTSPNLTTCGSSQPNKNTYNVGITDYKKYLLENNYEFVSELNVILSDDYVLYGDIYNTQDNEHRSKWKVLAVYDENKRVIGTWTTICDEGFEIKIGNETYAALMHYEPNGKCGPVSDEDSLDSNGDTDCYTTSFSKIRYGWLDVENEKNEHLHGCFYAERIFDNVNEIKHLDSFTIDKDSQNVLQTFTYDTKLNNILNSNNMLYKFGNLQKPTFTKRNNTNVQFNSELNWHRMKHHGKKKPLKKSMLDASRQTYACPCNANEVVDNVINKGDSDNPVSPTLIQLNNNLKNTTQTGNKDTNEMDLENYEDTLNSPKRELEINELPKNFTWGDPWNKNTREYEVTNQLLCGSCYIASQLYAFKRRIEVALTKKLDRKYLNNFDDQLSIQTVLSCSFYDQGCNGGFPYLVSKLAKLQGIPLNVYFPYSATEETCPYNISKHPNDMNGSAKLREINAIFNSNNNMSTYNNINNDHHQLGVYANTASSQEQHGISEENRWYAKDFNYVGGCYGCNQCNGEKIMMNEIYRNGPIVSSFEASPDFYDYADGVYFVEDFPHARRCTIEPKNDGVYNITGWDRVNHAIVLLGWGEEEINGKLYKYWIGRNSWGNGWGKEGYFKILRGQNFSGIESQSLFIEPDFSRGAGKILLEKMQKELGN
As to `CO/C(O)=C1\C(C)=NC2=C(C(=O)c3ccccc32)C1c1ccccc1OC` (stereo not shown), the “% Inhibition @ 10 uM” value is 2.09%. As for `O=C(CCNC(=O)Cn1ccc2ccccc2c1=O)NCCCN1CCCC1=O`, the figure is 2.73%; as for `CC(=O)c1cc(-c2ccccc2)n(CCC(=O)NC(C)(C)C)c1C`, -0.176%; as for `COc1ccc(C(=O)N2CCN(C(=O)c3cc(OC)c(OC)c(OC)c3)CC2)cc1`, -1.43%.

For the molecule `O=C(O)c1ccccc1C(=O)Nc1cc(Cl)c(Cl)cc1Cl`, the “% Inhibition @ 10 uM” value came out at 1.62%.

On to `O=[N+]([O-])c1ccccc1CSc1nc2ccccc2s1`, for which the “% Inhibition @ 10 uM” value was -0.49%. As to `O=C(NCc1ccccn1)C1CCCN(S(=O)(=O)N2CCCCCC2)C1` (stereo not shown), the “% Inhibition @ 10 uM” value worked out at 1.76%. Take `COc1ccc(N(C(C)C(=O)Nc2c(C)cccc2C)S(C)(=O)=O)cc1` (stereo not shown): the “% Inhibition @ 10 uM” value is -15.4%. For `COc1ccccc1C(=O)N1CCN(C(=O)c2cccc(F)c2)CC1`, the “% Inhibition @ 10 uM” value came to 1.26%. As for `COc1ccc(C(=O)Nc2ccc(N3CCN(Cc4ccccc4)CC3)cc2)cc1`, the “% Inhibition @ 10 uM” value is on record as 3.91%.

`CCOc1ccc(CCN2C(=O)C3C4C=CC(C4)C3C2=O)cc1OCC` (stereo not shown): the “% Inhibition @ 10 uM” value turned out to be 1.03%. Regarding `CCC(Cc1ccccc1)NC(=O)C1CCN(S(=O)(=O)c2cccc3nsnc23)CC1` (stereo not shown), the “% Inhibition @ 10 uM” value was found to be 0.208%. Consider `CN1CCN(c2ccc(NC(=O)COc3ccc(Br)cc3)cc2)CC1`, for which the “% Inhibition @ 10 uM” value worked out at 9.5%. Next, `CCOc1ccc(C2C(C(=O)Nc3ccccc3C)=C(C)Nc3nc(CCCO)nn32)cc1` (stereo not shown): 2.4%. Regarding `O=C(NCc1ccco1)C1CCCN(S(=O)(=O)c2ccc3nc(O)ccc3c2)C1` (stereo not shown), the “% Inhibition @ 10 uM” value is -6.47%.

With `CC(=O)c1cc(-c2ccccc2)n(CCC(=O)NCCc2ccc(C)cc2)c1C`, the “% Inhibition @ 10 uM” value is -1.88%. With `O=C(NCCC1=CCCCC1)C1CCCN(S(=O)(=O)c2ccc3[nH]c(-c4ccccc4)nc3c2)C1` (stereo not shown), the “% Inhibition @ 10 uM” value is on record as -8.49%.

For `CCOC(=O)C1=C(O)/C(=C\c2cc(C)n(-c3cc(C)ccc3OC)c2C)N=C1C`, the “% Inhibition @ 10 uM” value amounted to 3.47%. `CCC(=O)C1=C(Nc2ccccc2C)CC(C)(C)CC1=O`: the “% Inhibition @ 10 uM” value is given as -3.46%.

On to `N#Cc1cc2c(nc1SC1CC(=O)N(c3ccccc3)C1=O)CCCC2` (stereo not shown), for which the “% Inhibition @ 10 uM” value is listed as -2.68%. As for `CC(C)(C)C1CCc2c(sc(NC(=O)c3ccccc3)c2C#N)C1` (stereo not shown), the “% Inhibition @ 10 uM” value is reported as 9.19%.

With `Cc1cc2c(cc1C)-c1ccccc1C2=O`, the “% Inhibition @ 10 uM” value worked out at 3.05%. As for `COc1ccc(-c2noc(C(C)NC(=O)c3ccco3)n2)cc1OC` (stereo not shown), the figure is -0.946%; as for `CCN(CC)S(=O)(=O)c1ccc(NC(=O)c2sc3cc(OC)ccc3c2Cl)cc1`, 0.658%; as for `COc1ccc2nc(C)n3c4ccccc4c(NC(C)=O)c3c2c1`, 2.4%. Regarding `O=C(NCCCN1CCc2ccccc2C1)C1CCN(c2nc3ccccc3n3cccc23)CC1`, the “% Inhibition @ 10 uM” value is reported as 0.658%. `C=CC1CCC(N(Cc2ccccc2)S(=O)(=O)c2ccc(C)cc2)C(O)C1` (stereo not shown): the “% Inhibition @ 10 uM” value is 0.611%. For the molecule `Cc1nc2ccccc2nc1C12CC3CC(CC(C3)C1)C2`, the “% Inhibition @ 10 uM” value is -4.23%. For `Cc1ccc(CN(Cc2ccco2)C(=O)COc2c(C)cccc2C)cc1`, the “% Inhibition @ 10 uM” value is reported as -2.21%.

`Nc1nc2ccccc2n1CCN1CCOCC1`: the “% Inhibition @ 10 uM” value was -2.36%.

On to `C/N=C1/S/C(=C\c2ccc(OC)c3ccccc23)C(=O)N1C`, for which the “% Inhibition @ 10 uM” value is given as -2.18%.

Regarding `O=C(/C=C/c1ccc(F)cc1)C12CC3CC(CC(C3)C1)C2`, the “% Inhibition @ 10 uM” value worked out at 8.98%. `O=C(/C=C/c1ccc(Cl)cc1)NCCc1ccccc1`: the “% Inhibition @ 10 uM” value was 0.736% and 6.14%. Next, `CC(C)C[C@H](Nc1ccc2ccccc2c1)C(=O)NCC#N`: -6.46%; `Cc1nc2scc(C)n2c(=O)c1S(=O)(=O)NCC1CCN(Cc2ccc(F)cc2)CC1`: 1.99%.

Take `CCCNC(=O)c1ccc2c(c1)sc1nc(-c3ccccc3)cn12`: the “% Inhibition @ 10 uM” value is reported as 12.5%. On to `CCCCn1c(CN2CC(C)OC(C)C2)nc2c1c(=O)n(C)c(=O)n2C` (stereo not shown), for which the “% Inhibition @ 10 uM” value is -4.14%. On to `Cc1nccc2nc(O)c(C(=O)NC(C)CCc3ccccc3)cc12` (stereo not shown), for which the “% Inhibition @ 10 uM” value worked out at 5.47%. Consider `CCOc1ccc(-n2c(SCc3nc(-c4ccc(Cl)cc4)no3)nnc2-c2ccncc2)cc1`, for which the “% Inhibition @ 10 uM” value is 1.25%. Next, `O=C(CN(Cc1ccccc1)S(=O)(=O)c1ccc(F)cc1)NCCc1ccccc1`: -3.94%; `Cc1cc(=O)n2ncn(CC(C)C)c2n1`: -8.37%.

Take `Cc1cc(O)n2nc(NC(=O)C(C)Oc3ccccc3)nc2n1` (stereo not shown): the “% Inhibition @ 10 uM” value was -3.08%. For the molecule `CCOCCCNC(=O)c1cc2c(O)nc3ccccc3c2s1`, the “% Inhibition @ 10 uM” value stood at 2.9%.

For the molecule `Cc1c(C(=O)N2CCOCC2)oc2c1-c1nn(CC(=O)NCCCc3ccccc3)cc1CC2`, the “% Inhibition @ 10 uM” value was determined as 0.335%. Next, `CC(C)C[C@H](NC(=O)NCc1ccccc1)C(=O)N[C@@H](CCc1ccccc1)C(=O)CO`: 0.744%; `CCOc1cc(C2C(C#N)=C(N)OC3=C2C(=O)CC(C)(C)C3)ccc1OC(F)F` (stereo not shown): -2.64%; `COc1cccc(NC(=O)CC2COc3ccccc3O2)c1` (stereo not shown): 2.25%. For `Cc1cccc(C)c1N1CCc2cnn(S(=O)(=O)c3ccccc3[N+](=O)[O-])c21`, the “% Inhibition @ 10 uM” value came to 0.989%. Take `COc1ccc(-c2nc(CCNS(=O)(=O)c3ccc4c(c3)CCCC4)cs2)cc1OC`: the “% Inhibition @ 10 uM” value is on record as -0.72%.
